# The other results are listed elsewhere or left out.
# Legend:
# Experiment in all cases: glycan array binding signal (z-score within array); higher = stronger binding
# Settings in all cases: glycan notation: IUPAC condensed, linker removed
# [1] = molecular target: Neu5Ac(a2-6)Gal(b1-4)GlcNAc(b1-2)Man(a1-3)[GlcNAc(b1-2)Man(a1-6)]Man(b1-4)GlcNAc(b1-4)GlcNAc
# In short: (§1)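 Glycan array binding is given as a within-array Z-score, which can be read as non-binding when negative. The arrays, 3228 of them, came from the Consortium for Functional Glycomics database and were retained only where the protein sequence was available. Z-scores were averaged across arrays of the same protein sequence at different concentrations or buffers and across linkers.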
# [2] = molecular target: Neu5Ac(a2-6)Gal(b1-4)GlcNAc(b1-2)Man(a1-3)[GlcNAc(b1-4)][Neu5Ac(a2-6)Gal(b1-4)GlcNAc(b1-2)Man(a1-6)]Man(b1-4)GlcNAc(b1-4)GlcNAc
# In short: as §1
# [3] = molecular target: Neu5Ac(a2-6)Gal(b1-4)GlcNAc(b1-2)Man(a1-3)[Man(a1-6)]Man(b1-4)GlcNAc(b1-4)GlcNAc
# In short: as §1
# [4] = molecular target: Neu5Ac(a2-6)Gal(b1-4)GlcNAc(b1-2)Man(a1-3)[Neu5Ac(a2-3)Gal(b1-4)GlcNAc(b1-2)Man(a1-6)]Man(b1-4)GlcNAc(b1-4)GlcNAc
# In short: as §1
# [5] = molecular target: Neu5Ac(a2-6)Gal(b1-4)GlcNAc(b1-2)Man(a1-3)[Neu5Ac(a2-6)Gal(b1-4)GlcNAc(b1-2)Man(a1-6)]Man(b1-4)GlcNAc(b1-4)GlcNAc
# In short: as §1
# [6] = molecular target: Neu5Ac(a2-6)Gal(b1-4)GlcNAc(b1-2)Man(a1-3)[Neu5Ac(a2-6)Gal(b1-4)GlcNAc(b1-2)Man(a1-6)]Man(b1-4)GlcNAc(b1-4)[Fuc(a1-6)]GlcNAc
# In short: as §1
# [7] = molecular target: Neu5Ac(a2-6)Gal(b1-4)GlcNAc(b1-2)Man(a1-6)Man(b1-4)GlcNAc(b1-4)GlcNAc
# In short: as §1
# [8] = molecular target: Neu5Ac(a2-6)Gal(b1-4)GlcNAc(b1-2)Man(a1-6)[Gal(b1-4)GlcNAc(b1-2)Man(a1-3)]Man(b1-4)GlcNAc(b1-4)GlcNAc
# In short: as §1
# [9] = molecular target: Neu5Ac(a2-6)Gal(b1-4)GlcNAc(b1-2)Man(a1-6)[GlcNAc(b1-2)Man(a1-3)]Man(b1-4)GlcNAc(b1-4)GlcNAc
# In short: as §1
# [10] = molecular target: Neu5Ac(a2-6)Gal(b1-4)GlcNAc(b1-2)Man(a1-6)[Man(a1-3)]Man(b1-4)GlcNAc(b1-4)GlcNAc
# In short: as §1
# [11] = molecular target: Neu5Ac(a2-6)Gal(b1-4)GlcNAc(b1-2)[Neu5Ac(a2-6)Gal(b1-4)GlcNAc(b1-4)]Man(a1-3)[GlcNAc(b1-4)][Neu5Ac(a2-6)Gal(b1-4)GlcNAc(b1-2)[Neu5Ac(a2-6)Gal(b1-4)GlcNAc(b1-6)]Man(a1-6)]Man(b1-4)GlcNAc(b1-4)GlcNAc
# In short: as §1
# [12] = molecular target: Neu5Ac(a2-6)Gal(b1-4)GlcNAc(b1-2)[Neu5Ac(a2-6)Gal(b1-4)GlcNAc(b1-4)]Man(a1-3)[GlcNAc(b1-4)][Neu5Ac(a2-6)Gal(b1-4)GlcNAc(b1-4)Man(a1-6)]Man(b1-4)GlcNAc(b1-4)GlcNAc
# In short: as §1
# [13] = molecular target: Neu5Ac(a2-6)Gal(b1-4)GlcNAc(b1-2)[Neu5Ac(a2-6)Gal(b1-4)GlcNAc(b1-6)]Man(a1-6)[Neu5Ac(a2-6)Gal(b1-4)GlcNAc(b1-2)Man(a1-3)][GlcNAc(b1-4)]Man(b1-4)GlcNAc(b1-4)GlcNAc
# In short: as §1
# [14] = molecular target: Neu5Ac(a2-6)Gal(b1-4)GlcNAc(b1-3)Gal(b1-3)GlcNAc
# In short: as §1
# [15] = molecular target: Neu5Ac(a2-6)Gal(b1-4)GlcNAc(b1-3)Gal(b1-4)GlcNAc
# In short: as §1
# [16] = molecular target: Neu5Ac(a2-6)Gal(b1-4)GlcNAc(b1-3)Gal(b1-4)GlcNAc(b1-2)Man(a1-3)[Neu5Ac(a2-6)Gal(b1-4)GlcNAc(b1-3)Gal(b1-4)GlcNAc(b1-2)Man(a1-6)]GalNAc
# In short: as §1
# [17] = molecular target: Neu5Ac(a2-6)Gal(b1-4)GlcNAc(b1-3)Gal(b1-4)GlcNAc(b1-3)Gal(b1-4)GlcNAc
# In short: as §1
# [18] = molecular target: Neu5Ac(a2-6)Gal(b1-4)GlcNAc(b1-3)Gal(b1-4)GlcNAc(b1-3)Gal(b1-4)GlcNAc(b1-2)Man(a1-3)[Neu5Ac(a2-6)Gal(b1-4)GlcNAc(b1-3)Gal(b1-4)GlcNAc(b1-3)Gal(b1-4)GlcNAc(b1-2)Man(a1-6)]GalNAc
# In short: as §1
# [19] = molecular target: Neu5Ac(a2-6)Gal(b1-4)GlcNAc(b1-3)Gal(b1-4)GlcNAc(b1-3)GalNAc
# In short: as §1
# [20] = molecular target: Neu5Ac(a2-6)Gal(b1-4)GlcNAc(b1-3)Gal(b1-4)GlcNAc(b1-3)[Neu5Ac(a2-6)Gal(b1-4)GlcNAc(b1-3)Gal(b1-4)GlcNAc(b1-6)]GalNAc
# In short: as §1
# [21] = molecular target: Neu5Ac(a2-6)Gal(b1-4)GlcNAc(b1-3)Gal(b1-4)GlcNAc(b1-6)[Gal(b1-3)]GalNAc
# In short: as §1
# [22] = molecular target: Neu5Ac(a2-6)Gal(b1-4)GlcNAc(b1-3)Gal(b1-4)[Fuc(a1-3)]GlcNAc(b1-3)Gal(b1-4)[Fuc(a1-3)]GlcNAc
# In short: as §1
# [23] = molecular target: Neu5Ac(a2-6)Gal(b1-4)GlcNAc(b1-3)GalNAc
# In short: as §1
# [24] = molecular target: Neu5Ac(a2-6)Gal(b1-4)GlcNAc(b1-3)[Neu5Ac(a2-6)Gal(b1-4)GlcNAc(b1-6)]GalNAc
# In short: as §1
# [25] = molecular target: Neu5Ac(a2-6)Gal(b1-4)GlcNAc(b1-6)GalNAc
# In short: as §1
# [26] = molecular target: Neu5Ac(a2-6)Gal(b1-4)GlcNAc(b1-6)[Gal(b1-3)GlcNAc(b1-3)]Gal(b1-4)Glc
# In short: as §1
# [27] = molecular target: Neu5Ac(a2-6)Gal(b1-4)GlcNAc(b1-6)[Gal(b1-3)]GalNAc
# In short: as §1
# [28] = molecular target: Neu5Ac(a2-6)Gal(b1-4)GlcNAc6S
# In short: as §1
# [29] = molecular target: Neu5Ac(a2-6)GalNAc
# In short: as §1
# [30] = molecular target: Neu5Ac(a2-6)GalNAc(b1-4)GlcNAc
# In short: as §1
# [31] = molecular target: Neu5Ac(a2-6)GalNAc(b1-4)GlcNAc6S
# In short: as §1
# [32] = molecular target: Neu5Ac(a2-6)GlcNAc(b1-4)GlcNAc
# In short: as §1
binder,measurement,setting,value
Epa15 (Candida glabrata) (protein) MGSSHHHHHHSSGLVPRGSHMASDPTTFPLGCSPEFTKTKKGLSMELYRYDYLPPGSYPCWDSAYLNPSYPRTGYKAKKLIATVDGVSGDINFKFNPKFGCKAIPDYLPSNFNYHEPITITNFTMILYGYFMPKTTAFHTFYVTADDLLFMNFGAGNAFDCCRREETADKFGNYAAYSVWGKKSLKNELTVYLHTGVYYPIRLFYNNRDYIAQLDIRFKTEHSNAIITNFTDYFYSVDDSSLGCPGLI,glycan array binding signal (z-score),[1],0.595
same,glycan array binding signal (z-score),[2],-0.406
same,glycan array binding signal (z-score),[3],0.771
same,glycan array binding signal (z-score),[4],-0.227
same,glycan array binding signal (z-score),[5],-0.15
same,glycan array binding signal (z-score),[6],0.757
same,glycan array binding signal (z-score),[7],0.169
same,glycan array binding signal (z-score),[8],0.521
same,glycan array binding signal (z-score),[9],-0.447
same,glycan array binding signal (z-score),[10],-0.221
same,glycan array binding signal (z-score),[11],-0.317
same,glycan array binding signal (z-score),[12],0.519
same,glycan array binding signal (z-score),[13],0.218
same,glycan array binding signal (z-score),[14],-0.125
same,glycan array binding signal (z-score),[15],-0.531
same,glycan array binding signal (z-score),[16],0.185
same,glycan array binding signal (z-score),[17],-0.457
same,glycan array binding signal (z-score),[18],0.771
same,glycan array binding signal (z-score),[19],0.001
same,glycan array binding signal (z-score),[20],0.183
same,glycan array binding signal (z-score),[21],1.45
same,glycan array binding signal (z-score),[22],-0.177
same,glycan array binding signal (z-score),[23],-0.02
same,glycan array binding signal (z-score),[24],1.52
same,glycan array binding signal (z-score),[25],0.323
same,glycan array binding signal (z-score),[26],0.353
same,glycan array binding signal (z-score),[27],0.581
same,glycan array binding signal (z-score),[28],-0.386
same,glycan array binding signal (z-score),[29],-0.4
same,glycan array binding signal (z-score),[30],-0.546
same,glycan array binding signal (z-score),[31],-0.152
same,glycan array binding signal (z-score),[32],-0.526
